# Reference: ChEMBL document CHEMBL4888484, “Replenishing the malaria drug discovery pipeline: Screening and hit evaluation of the MMV Hit Generation Library 1 (HGL1) against asexual blood stage Plasmodium falciparum ,using a nano luciferase reporter read-out” (2022)
# Among all 150,000 compounds or so, about 540 (0.36%) showed an effect of 50% or more. This is one part of the list.
# Test system: Plasmodium falciparum
# Assay: Primary screen in NF54 nanoGlo assay, in single point, at 2uM, 72h; a lower Z score goes with more inhibition
# Type: functional, Erythrocyte
# Settings: timepoint 72 hour
SMILES,% Inhibition [%],Z score
COc1ccc(C(CNC(=O)N2CC(C)C(C)(CO)C2)N2CCCCC2)cc1 (stereo not drawn),3,-0.23
COc1cccc2c1CN(C(=O)NCc1cnc(C(F)(F)F)nc1)C2,-1,0.22
CC/C=C(\C)CN1CCN(C(=O)c2ccco2)[C@H]2CS(=O)(=O)C[C@H]21,-10,1.86
CCn1nccc1C(=O)N(Cc1cccc(OC)c1)C1CCCCCC1,-4,0.72
O=C(NCC1CCN(C2CC2)CC1)[C@H]1CCc2nnc(-c3ccccc3)n2C1,4,-0.74
CC(C)(C)NC(=O)N1CCCC[C@H]1c1nn(Cc2ccccc2)c2c1COCC2,-5,0.53
OC(CNC(c1ccc(F)cc1)c1ncccn1)c1ccco1 (stereo not drawn),2,-0.17
Cc1ccc(C)c(CNc2nc3ccncc3n(Cc3ccccc3)c2=O)c1,-10,0.96
COC(C)(C)C(C)N1C(=O)[C@@H]2CC(F)(F)CN2C1=O (stereo partly drawn),-2,0.38
Cc1c(CNCCc2ccco2)c(C(=O)O)c(C)n1-c1ccc(Cl)cc1,1,-0.11
CC(C)n1cccc1C(=O)NCCCc1nnc2ccccn12,-5,0.87
Cc1ncoc1CNC(=O)N1CCC[C@@]2(C=Cc3ccccc3O2)C1,-11,1.87
O=C(CNC(=O)OCc1ccccc1)Nc1nc2c(s1)C(=O)NCCC2,-8,1.67
Oc1ccc(-c2noc(-c3cnccn3)n2)cc1,33,-3.75
O=C(NC[C@]1(O)CCOC1)C(=O)Nc1ccon1,-7,1.26
COc1ccc(CC2(CCC(=O)N(C)C(C)c3cccs3)CCC(=O)N2)cc1 (stereo not drawn),-9,1.3
COc1ccc(Cl)cc1C(=O)Nc1ccc(N2CCCCC2=O)c(OC)c1,3,-0.45
Cc1nn([C@H]2CCS(=O)(=O)C2)c(C)c1N1CCN(C(=O)c2nc3ccccc3s2)CC1,-11,1.92
OC1CCCCC1N1CCC(NCc2cc(Cl)cs2)CC1 (stereo not drawn),-16,1.71
Cc1c(C(=O)NC2CCC(C(F)F)CC2)[nH]c(=O)c2ccccc12 (stereo not drawn),-1,0.24
Cc1cc(C(=O)NS(=O)(=O)Cc2ncon2)cc(C)c1F,-5,0.98

SMILES,% Inhibition [%],Z score
COc1ccc(-c2cc(C(F)(F)F)c3c(-c4ccc(Cl)cc4)nn(-c4ccc(C)c(C)c4)c3n2)cc1OC,-9,1.16
CCN1C[C@@H](COC(=O)c2ncsc2-c2ccccc2)CC1=O,-12,1.29
CC(C)Cc1noc(CN(C)Cc2cc(C#N)n(C)c2)n1,-19,3.58
COc1ccc(CC(=O)N2CCCS(=O)(=O)C[C@H]2C2CC2)nc1,-1,0.08
CCN(c1noc(C2CCN(C(=O)C(C)C)CC2)n1)C(C)C,-18,2.32
COC(=O)c1cccc(N2CC(=O)N(CCn3cc(C)cn3)C2=O)c1,-9,0.92
Cn1cc(CC(=O)OC2C3CCCOC3C2(C)C)cn1 (stereo not drawn),-16,2.24
COC(=O)N1CCCC[C@H]1C(=O)N(C)Cc1noc(C2CC2)n1,-3,0.52
NC(=O)[C@@H]1CC(C(=O)Nc2ccccc2C(=O)NCCc2ccccc2)=NN1c1ccccc1,6,-0.83
CN(C)S(=O)(=O)N(CC#N)Cc1cccc(C#N)c1,-12,1.5
Cc1ncsc1-c1nc(CC(=O)NC2CCCCC2)no1,-2,0.26
CC(C)n1cc(C#N)c(NC(=O)N(C)C[C@H](C)c2nccs2)n1,5,-0.58
CC(=O)N1CC(C(=O)N2CCN(Cc3ccccc3)CC2)CC(c2cccc(C)c2)C1 (stereo not drawn),2,-0.33
CC=C(C)C(=O)NS(=O)(=O)Cc1cc(Cl)ccc1F,29,-3.87
COc1ccc(-n2cccc2-c2ncc[nH]2)cc1,5,-0.42
COc1ccc(NC(=O)Cc2nc(Cc3ccccc3F)n[nH]2)cc1,-13,1.68
CN(C)C(=O)c1cncc(N[C@H]2CCCC[C@@H]2c2ccccc2)n1,-5,0.92
O=C1CC[C@]2(C(=O)NC3CCN(Cc4ccccc4)CC3)CCC=C2N1C1CCCC1,-5,0.54
Cn1cnnc1CN1C[C@@H](C(F)(F)F)OC(C)(C)C1,-1,0.13
O=C(NCCN1CCCCC1)c1cc2n(n1)CCN(Cc1ccccc1)C2=O,-3,0.38
Cc1nc(CNc2cncc(OCCO)n2)c(C)s1,-9,1.16

SMILES,% Inhibition [%],Z score
COc1nc2c(cc1C(=O)NCCn1ccnn1)C(=O)N(C1CCCC1)C2,-20,4.14
CCc1nnc(CN(CC)C[C@H]2COc3ccccc3O2)o1,4,-0.53
O=c1ccn(-c2ccccc2)nc1-c1nc(-c2cccc(F)c2)no1,-2,0.32
C[C@@H](C(=O)N(C)C)S(=O)(=O)Nc1cc(Cl)ccc1C#N,2,-0.25
Nc1ccnc(CN(Cc2ccccc2F)c2ccc(F)cc2)n1,3,-0.53
CCOc1cc(Cl)ccc1C(=O)N[C@@H](C)CC#N,-9,1.33
CN1CCN(S(=O)(=O)N2CCN(CCC(F)(F)F)CC2)CC1,-13,1.26
Cc1nn(C)c(C)c1C(=O)C(=O)NCc1ccccc1OCC1CC1,-13,1.99
CCc1nc2ccccc2n1[C@@H](CC)C(=O)NCCc1c[nH]cn1,-13,1.61
Cc1oc(-c2ccccc2)c(C(=O)N[C@@H](CC(F)F)C(=O)O)c1C,3,-0.31
CCS(=O)(=O)CCn1cc(C)c(N)n1,-11,1.52
Cc1nn(CCCC(=O)NCCc2ccccc2)c(=O)c2nccn12,-20,2.6
CCn1ccnc1Cn1ccc(-c2cccc(-c3ncccc3C#N)c2)n1,10,-1.24
O=C(CN1N=C(c2ccccc2F)c2cc(Cl)ccc2S1(=O)=O)Nc1ccc(F)cc1,-26,2.43
CC(C)c1cc(C(=O)N(C)c2ccc3c(c2)CCO3)n(C)n1,-13,1.29
COCCN(CC(=O)Nc1ccc(F)cc1Cl)CC(F)(F)F,-17,2.7
O=C(c1ccco1)N1CCN(C(=O)c2nc(N3CCCC3)nc3c2CCCC3)CC1,-25,2.18
CCc1cc(C(=O)N2CCN(C/C=C/c3ccccc3)CC2)cc(=O)[nH]1,0,0.04
COc1ccc(S(=O)(=O)N2Cc3cnc(N4CCOCC4)nc3C2)cc1C,-15,2.92
CCCn1nc(C)cc1CN(C)c1ncc(NS(=O)(=O)c2ccc(F)cc2)cc1C(=O)O,-14,1.36
CCCN(Cc1cc(NC(=O)NCc2ccccc2)ccc1N(C)C)S(=O)(=O)c1ccc(F)cc1,-6,0.71

SMILES,% Inhibition [%],Z score
CC(C)COC1CCN(c2ccc(C(F)(F)F)nn2)CC1,0,0.02
CCc1ncc2c(n1)CN(C(=O)[C@H](C)NS(C)(=O)=O)C2,-1,0.09
Nc1cncc(-n2cnc3ccccc32)c1,9,-0.8
CCn1c(=O)c(CCC(=O)NC2CCCC2)nc2c(C)nn(-c3ccccc3)c21,-17,2.46
Cc1cc(S(=O)(=O)N2CC(O)(C3CC3)C2)sc1C,-9,1.2
CCn1cc(C(=O)NC[C@H](C)Cn2ccnc2)cn1,-4,0.66
Cc1cccc(Cn2c(C(=O)NC[C@@]3(C)CCCO3)cc3cc(NC(=O)c4ccccc4F)ccc32)c1,-9,1.1
O=C([C@@H]1CC=CCC1)N1CCC(c2nnc(C(F)(F)F)o2)CC1,-3,0.52
Cc1ccc([C@@H](C)NC(=O)NCCC2(O)CCOCC2)cc1F,-6,0.84
Cn1nnc(CNC(=O)C[C@@H]2C=CCC2)n1,-3,0.56
COCC1=CCN(C(=O)Nc2cnc(N3CCCC[C@@H]3C)c(C)c2)CC1,-5,0.49
COCc1ccc(CNC(C)C2CCCOC2)cc1 (stereo not drawn),4,-0.71
CC(C)OC(=O)[C@H](C)NC(=O)C1CCC1,-1,0.13
Cc1c(-c2nnc(C(=O)NCc3ccccc3)o2)oc2c(C)cccc12,-8,1.22
CCN1C[C@@H](S(=O)(=O)NCC(C)(C)CCCO)CC1=O,2,-0.35
COC[C@@H](O)CN(Cc1ccco1)Cc1c(C)nn(-c2ccccc2)c1Oc1ccccc1,-13,1.51
CC(C)(C)CC(=O)N1CC[C@H]2NC(=O)N(Cc3ccccc3)C(=O)[C@H]21,32,-3.58
CN1CCC(Nc2cc(-n3cccn3)nc(N)n2)C1c1ccccc1 (stereo not drawn),-5,0.92
COc1cc(CN(C)[C@H]2CCc3nnc(C)n3CC2)ccc1F,-10,1.55
Cc1ccc(CNC(=O)Cn2c(=O)n(-c3ccc(C)c(F)c3)c(=O)c3sccc32)cc1,-9,1.04
CCn1ccc2c(CN3C[C@@H]4c5ccccc5OC[C@]4(CO)C3)cccc21,-9,1.11
